The other results are listed elsewhere or left out. The protein was read in a cell extract, so binding may be indirect.
Key:
Test in all cases: pull-down
Settings in all cases: 150 mM NaCl, 50 mM Tris pH 8.0, 0.25% NP-40, 1 mM DTT; 4 C, 2 h; 100 ug nuclear extract; double strand, one strand shown
PNKP (Homo sapiens) = PNKP (Homo sapiens) (UniProt Q96T60)
POLB (Homo sapiens) = POLB (Homo sapiens) (UniProt P06746)
POLG2 (Homo sapiens) = POLG2 (Homo sapiens) (UniProt Q9UHN1)
POLR2F (Homo sapiens) = POLR2F (Homo sapiens) (UniProt P61218)
POLR2H (Homo sapiens) = POLR2H (Homo sapiens) (UniProt P52434)
POLR3A (Homo sapiens) = biological target: T1, POLR3A (Homo sapiens) (UniProt O14802)
T1 sequence: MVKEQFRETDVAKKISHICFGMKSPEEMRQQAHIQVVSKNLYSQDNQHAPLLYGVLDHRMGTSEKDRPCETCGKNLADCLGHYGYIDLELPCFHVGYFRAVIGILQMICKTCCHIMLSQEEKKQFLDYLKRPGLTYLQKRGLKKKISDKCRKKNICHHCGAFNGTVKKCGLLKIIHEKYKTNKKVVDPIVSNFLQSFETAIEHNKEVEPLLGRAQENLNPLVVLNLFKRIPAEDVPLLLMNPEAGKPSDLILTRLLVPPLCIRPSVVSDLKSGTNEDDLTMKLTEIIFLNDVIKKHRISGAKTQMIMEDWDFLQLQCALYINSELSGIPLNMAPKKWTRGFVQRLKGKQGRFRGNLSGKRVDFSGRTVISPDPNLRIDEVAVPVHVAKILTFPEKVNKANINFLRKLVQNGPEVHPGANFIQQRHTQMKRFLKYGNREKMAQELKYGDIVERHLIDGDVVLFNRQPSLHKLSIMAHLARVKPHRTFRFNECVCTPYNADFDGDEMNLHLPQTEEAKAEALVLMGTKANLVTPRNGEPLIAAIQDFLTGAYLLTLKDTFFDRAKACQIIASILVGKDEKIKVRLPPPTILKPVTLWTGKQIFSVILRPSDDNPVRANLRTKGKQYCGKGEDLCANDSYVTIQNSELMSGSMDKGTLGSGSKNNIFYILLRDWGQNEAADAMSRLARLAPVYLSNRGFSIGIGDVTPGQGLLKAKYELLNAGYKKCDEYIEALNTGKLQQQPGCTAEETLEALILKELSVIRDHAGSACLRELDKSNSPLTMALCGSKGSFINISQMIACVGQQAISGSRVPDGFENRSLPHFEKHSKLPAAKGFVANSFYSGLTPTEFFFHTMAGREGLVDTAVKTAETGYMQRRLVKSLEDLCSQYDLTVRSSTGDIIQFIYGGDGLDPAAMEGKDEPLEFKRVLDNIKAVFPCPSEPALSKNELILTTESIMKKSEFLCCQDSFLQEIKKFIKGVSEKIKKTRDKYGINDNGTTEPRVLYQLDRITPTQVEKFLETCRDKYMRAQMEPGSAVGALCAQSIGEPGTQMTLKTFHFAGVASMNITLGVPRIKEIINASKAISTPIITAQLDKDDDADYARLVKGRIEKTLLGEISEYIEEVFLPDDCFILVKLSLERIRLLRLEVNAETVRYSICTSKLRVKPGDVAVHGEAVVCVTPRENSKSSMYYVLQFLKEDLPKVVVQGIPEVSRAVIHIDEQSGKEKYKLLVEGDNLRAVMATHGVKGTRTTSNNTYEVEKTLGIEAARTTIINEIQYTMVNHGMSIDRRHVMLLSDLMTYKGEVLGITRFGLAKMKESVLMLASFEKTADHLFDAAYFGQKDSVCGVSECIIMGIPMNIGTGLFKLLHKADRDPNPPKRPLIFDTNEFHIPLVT

POLR3B (Homo sapiens) = biological target: T2, POLR3B (Homo sapiens) (UniProt Q9NW08)
T2 sequence: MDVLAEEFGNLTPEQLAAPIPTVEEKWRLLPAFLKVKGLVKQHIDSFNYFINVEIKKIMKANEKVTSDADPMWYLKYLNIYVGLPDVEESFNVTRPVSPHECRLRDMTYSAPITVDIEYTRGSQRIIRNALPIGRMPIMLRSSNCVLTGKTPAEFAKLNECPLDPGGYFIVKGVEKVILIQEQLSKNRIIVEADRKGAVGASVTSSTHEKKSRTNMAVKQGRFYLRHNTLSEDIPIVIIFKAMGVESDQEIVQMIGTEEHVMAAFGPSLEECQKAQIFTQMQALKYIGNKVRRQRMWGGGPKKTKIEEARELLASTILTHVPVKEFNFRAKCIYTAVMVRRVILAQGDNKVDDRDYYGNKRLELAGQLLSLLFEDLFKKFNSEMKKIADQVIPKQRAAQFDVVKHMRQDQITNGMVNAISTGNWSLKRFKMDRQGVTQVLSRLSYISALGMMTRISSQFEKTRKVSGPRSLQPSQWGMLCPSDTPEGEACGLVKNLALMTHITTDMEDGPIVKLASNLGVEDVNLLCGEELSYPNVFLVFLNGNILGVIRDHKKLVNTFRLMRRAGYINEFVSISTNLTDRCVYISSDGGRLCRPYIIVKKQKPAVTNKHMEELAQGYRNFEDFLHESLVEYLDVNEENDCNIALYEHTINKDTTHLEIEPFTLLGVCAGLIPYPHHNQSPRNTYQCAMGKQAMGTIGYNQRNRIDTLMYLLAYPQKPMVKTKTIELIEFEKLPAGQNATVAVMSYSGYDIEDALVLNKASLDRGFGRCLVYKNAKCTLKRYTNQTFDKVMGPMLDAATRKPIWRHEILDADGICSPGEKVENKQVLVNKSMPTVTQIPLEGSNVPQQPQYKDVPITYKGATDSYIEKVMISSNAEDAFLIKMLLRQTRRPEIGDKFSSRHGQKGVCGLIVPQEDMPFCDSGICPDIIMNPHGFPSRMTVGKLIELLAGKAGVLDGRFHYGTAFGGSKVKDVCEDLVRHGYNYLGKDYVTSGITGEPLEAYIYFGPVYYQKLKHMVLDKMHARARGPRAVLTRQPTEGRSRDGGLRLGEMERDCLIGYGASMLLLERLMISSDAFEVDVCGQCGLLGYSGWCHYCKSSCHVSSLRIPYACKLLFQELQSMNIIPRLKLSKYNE

RBM27 (Homo sapiens) = biological target: T3, RBM27 (Homo sapiens) (UniProt Q9P2N5)
T3 sequence: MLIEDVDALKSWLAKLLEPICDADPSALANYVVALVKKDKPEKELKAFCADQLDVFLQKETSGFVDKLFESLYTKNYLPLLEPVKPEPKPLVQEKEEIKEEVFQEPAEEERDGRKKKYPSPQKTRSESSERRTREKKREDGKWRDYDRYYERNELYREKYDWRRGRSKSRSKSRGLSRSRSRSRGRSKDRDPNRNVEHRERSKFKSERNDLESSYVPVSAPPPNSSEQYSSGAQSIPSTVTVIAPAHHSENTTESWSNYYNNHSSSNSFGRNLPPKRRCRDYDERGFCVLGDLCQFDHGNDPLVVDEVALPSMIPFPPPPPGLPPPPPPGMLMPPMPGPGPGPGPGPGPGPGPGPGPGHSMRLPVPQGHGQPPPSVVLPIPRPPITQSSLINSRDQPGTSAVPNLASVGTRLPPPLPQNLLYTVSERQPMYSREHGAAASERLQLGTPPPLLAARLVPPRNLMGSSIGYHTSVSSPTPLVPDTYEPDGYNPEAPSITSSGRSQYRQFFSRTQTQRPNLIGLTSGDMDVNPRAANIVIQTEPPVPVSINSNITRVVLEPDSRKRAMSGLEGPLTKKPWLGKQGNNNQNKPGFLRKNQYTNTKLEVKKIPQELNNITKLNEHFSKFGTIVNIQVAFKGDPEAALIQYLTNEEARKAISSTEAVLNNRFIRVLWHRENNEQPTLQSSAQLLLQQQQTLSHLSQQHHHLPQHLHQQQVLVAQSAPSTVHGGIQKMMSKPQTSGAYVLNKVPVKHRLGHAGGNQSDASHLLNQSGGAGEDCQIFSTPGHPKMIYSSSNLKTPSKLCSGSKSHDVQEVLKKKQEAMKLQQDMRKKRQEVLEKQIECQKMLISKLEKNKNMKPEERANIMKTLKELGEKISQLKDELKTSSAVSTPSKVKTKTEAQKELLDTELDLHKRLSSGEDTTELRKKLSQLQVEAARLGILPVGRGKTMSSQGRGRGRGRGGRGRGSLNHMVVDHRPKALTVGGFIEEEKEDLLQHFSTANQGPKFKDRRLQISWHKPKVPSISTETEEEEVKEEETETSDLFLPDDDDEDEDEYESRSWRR

RBM4 (Homo sapiens) = RBM4 (Homo sapiens) (UniProt Q9BWF3)
UniProt Q9BWF3, sequence (Q9BWF3 whole entry): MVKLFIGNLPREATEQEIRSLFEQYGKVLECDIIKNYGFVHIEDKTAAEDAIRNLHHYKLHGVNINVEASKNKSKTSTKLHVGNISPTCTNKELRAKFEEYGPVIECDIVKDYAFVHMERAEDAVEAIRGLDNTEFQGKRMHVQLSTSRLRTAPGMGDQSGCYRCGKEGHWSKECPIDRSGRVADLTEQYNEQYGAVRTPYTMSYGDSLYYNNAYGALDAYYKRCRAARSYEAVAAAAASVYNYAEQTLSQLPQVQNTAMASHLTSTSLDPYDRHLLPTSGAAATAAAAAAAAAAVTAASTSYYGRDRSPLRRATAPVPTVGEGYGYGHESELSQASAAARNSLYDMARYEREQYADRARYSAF

RFC1 (Homo sapiens) = biological target: T4, RFC1 (Homo sapiens) (UniProt P35251)
T4 sequence: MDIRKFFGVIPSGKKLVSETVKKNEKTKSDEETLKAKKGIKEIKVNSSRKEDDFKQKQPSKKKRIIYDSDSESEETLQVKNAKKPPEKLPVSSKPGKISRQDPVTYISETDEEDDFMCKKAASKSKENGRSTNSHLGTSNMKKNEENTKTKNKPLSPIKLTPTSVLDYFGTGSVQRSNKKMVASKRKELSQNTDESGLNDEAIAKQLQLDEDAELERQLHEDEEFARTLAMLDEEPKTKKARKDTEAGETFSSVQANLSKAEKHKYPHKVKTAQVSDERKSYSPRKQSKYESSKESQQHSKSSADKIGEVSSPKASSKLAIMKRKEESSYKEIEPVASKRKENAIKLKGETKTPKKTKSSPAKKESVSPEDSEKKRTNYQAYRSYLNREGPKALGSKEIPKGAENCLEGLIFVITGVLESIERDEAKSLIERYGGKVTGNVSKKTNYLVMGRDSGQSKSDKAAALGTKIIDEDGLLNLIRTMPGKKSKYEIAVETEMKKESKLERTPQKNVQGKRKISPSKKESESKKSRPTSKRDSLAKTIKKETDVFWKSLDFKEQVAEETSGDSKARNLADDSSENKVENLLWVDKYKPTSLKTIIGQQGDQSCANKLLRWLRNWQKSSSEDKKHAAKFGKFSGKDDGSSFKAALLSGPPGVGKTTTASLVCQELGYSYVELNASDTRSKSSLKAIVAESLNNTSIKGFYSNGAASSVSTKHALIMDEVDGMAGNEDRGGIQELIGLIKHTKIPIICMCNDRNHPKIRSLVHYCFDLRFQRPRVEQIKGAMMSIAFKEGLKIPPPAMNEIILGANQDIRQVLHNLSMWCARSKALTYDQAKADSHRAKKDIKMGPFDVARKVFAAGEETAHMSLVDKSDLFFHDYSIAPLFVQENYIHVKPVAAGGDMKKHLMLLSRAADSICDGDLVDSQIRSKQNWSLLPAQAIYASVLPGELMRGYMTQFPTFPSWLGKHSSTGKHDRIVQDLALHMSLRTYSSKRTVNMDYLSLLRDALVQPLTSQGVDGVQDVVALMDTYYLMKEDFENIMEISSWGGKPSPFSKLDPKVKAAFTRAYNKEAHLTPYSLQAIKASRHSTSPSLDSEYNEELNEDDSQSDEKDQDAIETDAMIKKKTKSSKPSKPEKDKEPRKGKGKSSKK

RFC4 (Homo sapiens) = RFC4 (Homo sapiens) (UniProt P35249)
UniProt P35249, sequence (P35249 whole entry): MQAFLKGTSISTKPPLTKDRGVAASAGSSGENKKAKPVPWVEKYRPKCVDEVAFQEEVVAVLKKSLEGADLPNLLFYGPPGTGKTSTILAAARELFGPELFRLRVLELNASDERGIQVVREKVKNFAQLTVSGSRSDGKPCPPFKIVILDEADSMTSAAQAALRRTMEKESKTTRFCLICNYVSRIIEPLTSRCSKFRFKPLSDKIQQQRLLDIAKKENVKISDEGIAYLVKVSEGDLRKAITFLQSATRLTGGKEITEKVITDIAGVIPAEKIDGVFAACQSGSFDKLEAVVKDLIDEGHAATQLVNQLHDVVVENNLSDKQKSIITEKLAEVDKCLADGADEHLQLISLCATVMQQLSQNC

RFC5 (Homo sapiens) = RFC5 (Homo sapiens) (UniProt P40937)
UniProt P40937, sequence (P40937 whole entry): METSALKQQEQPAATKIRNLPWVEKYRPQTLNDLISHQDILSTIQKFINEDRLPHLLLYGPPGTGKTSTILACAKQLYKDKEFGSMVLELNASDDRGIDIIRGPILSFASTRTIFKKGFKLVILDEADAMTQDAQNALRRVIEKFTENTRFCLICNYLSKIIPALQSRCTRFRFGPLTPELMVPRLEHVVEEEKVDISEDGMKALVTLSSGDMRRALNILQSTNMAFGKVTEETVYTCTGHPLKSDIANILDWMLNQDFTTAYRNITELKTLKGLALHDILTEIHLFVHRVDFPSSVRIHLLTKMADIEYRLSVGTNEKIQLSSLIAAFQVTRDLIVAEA

RING1 (Homo sapiens) = biological target: T5, RING1 (Homo sapiens) (UniProt Q06587)
T5 sequence: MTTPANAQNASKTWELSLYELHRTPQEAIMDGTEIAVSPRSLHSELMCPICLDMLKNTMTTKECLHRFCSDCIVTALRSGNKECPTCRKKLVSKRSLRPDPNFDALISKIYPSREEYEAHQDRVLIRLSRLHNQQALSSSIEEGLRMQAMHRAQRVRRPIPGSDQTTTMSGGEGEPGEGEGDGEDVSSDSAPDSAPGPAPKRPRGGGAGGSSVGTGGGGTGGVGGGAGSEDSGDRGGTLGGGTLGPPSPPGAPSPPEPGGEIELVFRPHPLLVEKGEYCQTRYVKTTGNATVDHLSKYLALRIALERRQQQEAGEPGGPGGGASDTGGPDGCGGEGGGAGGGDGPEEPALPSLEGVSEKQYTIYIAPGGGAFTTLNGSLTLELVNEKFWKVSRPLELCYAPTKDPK

RPA1 (Homo sapiens) = RPA1 (Homo sapiens) (UniProt P27694)
UniProt P27694, sequence (P27694 whole entry): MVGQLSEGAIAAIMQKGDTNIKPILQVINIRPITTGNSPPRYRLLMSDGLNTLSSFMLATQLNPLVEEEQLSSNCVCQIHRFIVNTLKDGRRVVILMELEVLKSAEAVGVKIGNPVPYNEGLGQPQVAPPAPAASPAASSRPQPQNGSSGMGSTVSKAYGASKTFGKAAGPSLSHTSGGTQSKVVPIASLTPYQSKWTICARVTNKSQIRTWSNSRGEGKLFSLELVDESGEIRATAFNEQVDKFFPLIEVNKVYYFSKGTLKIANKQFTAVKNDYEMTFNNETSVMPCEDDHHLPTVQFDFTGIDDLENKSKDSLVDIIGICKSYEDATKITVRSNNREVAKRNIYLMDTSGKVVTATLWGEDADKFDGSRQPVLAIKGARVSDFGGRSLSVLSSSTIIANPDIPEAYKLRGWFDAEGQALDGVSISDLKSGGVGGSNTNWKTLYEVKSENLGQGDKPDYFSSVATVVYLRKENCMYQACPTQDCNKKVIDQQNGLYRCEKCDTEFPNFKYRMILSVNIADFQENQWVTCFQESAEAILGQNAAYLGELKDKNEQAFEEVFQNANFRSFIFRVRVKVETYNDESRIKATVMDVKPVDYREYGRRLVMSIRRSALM

RPA3 (Homo sapiens) = RPA3 (Homo sapiens) (UniProt P35244)
UniProt P35244, sequence (P35244 whole entry): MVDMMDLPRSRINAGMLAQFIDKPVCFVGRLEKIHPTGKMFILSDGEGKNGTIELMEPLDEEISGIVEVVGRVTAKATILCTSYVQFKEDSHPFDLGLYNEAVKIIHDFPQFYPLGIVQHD

UniProt Q9UHN1, sequence (Q9UHN1 whole entry): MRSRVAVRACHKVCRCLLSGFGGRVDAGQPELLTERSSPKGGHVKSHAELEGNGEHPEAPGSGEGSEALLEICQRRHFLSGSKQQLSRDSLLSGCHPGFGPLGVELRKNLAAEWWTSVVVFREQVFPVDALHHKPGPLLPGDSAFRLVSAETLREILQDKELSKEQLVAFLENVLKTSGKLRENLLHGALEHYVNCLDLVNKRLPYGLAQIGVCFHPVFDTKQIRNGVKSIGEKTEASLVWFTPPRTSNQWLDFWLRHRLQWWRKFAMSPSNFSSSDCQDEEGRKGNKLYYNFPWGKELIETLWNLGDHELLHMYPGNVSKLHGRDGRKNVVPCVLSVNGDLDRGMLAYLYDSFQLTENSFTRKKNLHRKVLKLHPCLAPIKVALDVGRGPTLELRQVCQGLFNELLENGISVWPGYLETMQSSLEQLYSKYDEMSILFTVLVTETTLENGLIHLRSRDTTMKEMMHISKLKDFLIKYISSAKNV

“GCCGCCGCCCTCCCACGCGCTGCCGGGCC [BEND3 bait]” gave a half-maximal binding (PNKP (Homo sapiens)) of 323 nM, a half-maximal binding (POLB (Homo sapiens)) of 111 nM and a half-maximal binding (POLG2 (Homo sapiens)) of 56.3 nM. The half-maximal binding (POLR2F (Homo sapiens)) was 150 nM, the half-maximal binding (POLR2H (Homo sapiens)) was 154 nM and the half-maximal binding (POLR3A (Homo sapiens)) was 141 nM. The half-maximal binding (POLR3B (Homo sapiens)) was 123 nM, the half-maximal binding (RBM27 (Homo sapiens)) was 98.1 nM and the half-maximal binding (RBM4 (Homo sapiens)) was 384 nM. It also gave a half-maximal binding (RFC1 (Homo sapiens)) of 537 nM, a half-maximal binding (RFC4 (Homo sapiens)) of 630 nM and a half-maximal binding (RFC5 (Homo sapiens)) of 658 nM. For the same sequence, the half-maximal binding (RING1 (Homo sapiens)) was 407 nM, the half-maximal binding (RPA1 (Homo sapiens)) was 351 nM and the half-maximal binding (RPA3 (Homo sapiens)) was 313 nM.

Reference: publication PMC10407929
